Measurements: the RNAGym collection of RNA variant scans (doi:10.1093/nar/gkz1192)
The source gives no read counts; variants with many changes may rest on few reads.

B1: CPEB3 Ribozyme (parent)
chain: UAACAGGGGGCCACAGCAGAAGCGUUCACGUCGCAGCCCCUGUCAGAUUCUGGUGAAUCUGCGAAUUCUGCUGUAUAUCUC

Variants of: B1
Assay: self-cleavage, relative activity (ratio to wild type); higher = more cleavage; in vitro, sequencing
Procedure, shortened: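 Relative activity compares each variant's cleaved/total read fraction with that of the unmutated ribozyme. To get these fractions, barcoded CPEB3 ribozyme libraries from rounds of error-prone PCR were transcribed with T7 RNA polymerase for 5 hours at 37°C and then given 15 min of DNase I treatment before EDTA was added. The RNAs were reverse transcribed with template switching and sequenced on Illumina, and DNA sequencing linked barcodes to variants. A minimum of 5 reads applied, and three batches were averaged.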

Variant	self-cleavage
UAACAGGGGGCCACAGCAGUAGCGUUCGCGUCGCAGCCCCUGUCAGAUACUUGUGAAUCUGCGAACUCUGCUUUAUUUCUC [A20U A28G U49A G52U U66C G73U A77U]	0.07
UAACAGGGGGCCACAGCAGUAGCGUUCUCGUCGCAGCCCCUGUCAGAAUCUGGUGAAUCUGCGAAUUCUGCUGUAUAUCUC [A20U A28U U48A]	0.07
UAACAGGGGGCCACAGCAGUAGCGUUCACGUCGCGGCACCGGUCAGAUUCUGGUGAAUCUGCGAAUUCUGAUGUAUAUCUC [A20U A35G C38A U41G C71A]	0.15
UAACAGGGGGCCACAGCAGUAGCGUUCACGUCGCGGCUCCUGUCAGAUUCUGGUGAAUCUGCGAAUUCUGCUGUAUAUCUC [A20U A35G C38U]	0.63
UAACAGGGGGCCACAGCAGUAGCGUUCACGUCGCGGCCUCUGUCAGAUUCUGGUGAAUCUGCGAAUUCUGCUGUACAUCUC [A20U A35G C39U U76C]	1.07
UAACAGGGGGCCACAGCAGUAGCGUUCACGUCGCGGCCCCUGUCAGAUUCUGGUGAAUCUGCAAAUUCCGCUAUAUAUCUC [A20U A35G G63A U69C G73A]	0.43
UAACAGGGGGCCACAGCAGUAGCGUUCACGUCGCGGCCCCUGCCAGACUCUGGUCAAUCUGCGAAUUCUGCUGUAUAUCUC [A20U A35G U43C U48C G55C]	0.16
UAACAGGGGGCCACAGCAGUAGCGUUCACGUCGCGGCCCCUGUCAGAUUCUGGUGAAUCUGCGAAAUCUGCAGUAUAUCUC [A20U A35G U66A U72A]	0.64
UAACAGGGGGCCACAGCAGUAGCGUUCACGUCGCUGCCCCUGUCAGAUUCUGGUGAGUCUGCGAAUUCUGCUGUAUAUAUC [A20U A35U A57G C79A]	0.12
UAACAGGGGGCCACAGCAGUAGCGUUCACGUCGCAGCCCCUGUCCGAUCCUGGUGAAUCUGCGAAUUCAGCUGUAUAUCUC [A20U A45C U49C U69A]	0.05
UAACAGGGGGCCACAGCAGUAGCGUUCACGUCGCAGCCCCUGUCGGAUUCUGGUGAACCUGCGAAUUCUACCGUAAAUCUC [A20U A45G U58C G70A U72C U76A]	0.07
UAACAGGGGGCCACAGCAGUAGCGUUCACGUCGCAGCCCCUGUCUGAUUCUGGUGAAUCUGCGAAUUCUGCUGAAUAUCUC [A20U A45U U74A]	0.13
UAACAGGGGGCCACAGCAGUAGCGUUCACGUCGCAGCCCCUGUCAGGUUCUGGUGAAUCUGCGAAUUCUGCCGUAUAUCCC [A20U A47G U72C U80C]	0.16
UAACAGGGGGCCACAGCAGUAGCGUUCACGUCGCAGCCCCUGUCAGUUUCUGGUGAAUCUGCAAAUUCUGCUGUAUAUCCC [A20U A47U G63A U80C]	0.19
UAACAGGGGGCCACAGCAGUAGCGUUCACGUCGCAGCCCCUGUCAGAUUCUGGUGUACCUGCGAAUUCUGCUGUAUAUCUC [A20U A56U U58C]	0.17
UAACAGGGGGCCACAGCAGUAGCGUUCACGUCGCAGCCCCUGUCAGAUUCUGGUGAAUCUGCGAGUUCUGCUGUAUACCUC [A20U A65G U78C]	0.22
UAACAGGGGGCCACAGCAGUAGUGUUCACGUCGCAGCCCCUGUCAGAUUCUGGCGAAUCUGCGGAUUCUGCUGUAUAUCUC [A20U C23U U54C A64G]	0.35

Variant	self-cleavage
UAACAGGGGGCCACAGCAGUAGCGUUCAGGACGCAGCCCCUGUCAGAUUCUGGUGACUCUGCGAAUUCAGCAGUAUAUCUC [A20U C29G U31A A57C U69A U72A]	0.05
UAACAGGGGGCCACAGCAGUAGCGUUCAUGUCGCAGCCCCUGUCAGAUUCUGGUGUAUCUGCGAAUUCUGCUGUAUAUCUC [A20U C29U A56U]	0.12
UAACAGGGGGCCACAGCAGUAGCGUUCAUGACGCAGCCCCUGUCAGAUUCUGGUGAAUCUGCGAAUUCUGCUGUAAUUCUC [A20U C29U U31A U76A A77U]	0.1
UAACAGGGGGCCACAGCAGUAGCGUUCACGUAGCAGCCCCUGUCAGAUUCUGGUGAAUCUGCGAAUUCUGCCGUAUAUCUC [A20U C32A U72C]	0.2
UAACAGGGGGCCACAGCAGUAGCGUUCACGUUGCGGCCCCCGUCAGAUUCUGGUGAAUCUGCGAACCCUGCUGUAUAUCUC [A20U C32U A35G U41C U66C U67C]	0.07
UAACAGGGGGCCACAGCAGUAGCGUUCACGUCGUAGCCCCUGUCAGAUUCAGGUGAAUCUGCGAAUCCUGCUGUAUAUCUC [A20U C34U U51A U67C]	0.12
UAACAGGGGGCCACAGCAGUAGCGUUCACGUCGCAGCUCCUGUCAGAUUCUGGUGAAUCCGCGGCUUCUGCUGUUUAUCUC [A20U C38U U60C A64G A65C A75U]	0.06
UAACAGGGGGCCACAGCAGUAGCGUUCACGUCGCAGCCACUGUCAGAUACUGGUGAAUCUGCGAAUUCUGCUGUAUAUCUC [A20U C39A U49A]	0.12
UAACAGGGGGCCACAGCAGUAGCGUUCACGUCGCAGCCCUAGUCAGGUUCUGGUGAAUCUGCGAAUUCUGCUGUAUAUCUC [A20U C40U U41A A47G]	0.19
UAACAGGGGGCCACAGCAGUAGCGUUCACGUCGCAGCCCCUGUCAGAUUAUGGUGAAUCUGCGAAUUCUGCAGUAUAUCCC [A20U C50A U72A U80C]	0.58
UAACAGGGGGCCACAGCAGUAGCGUUCACGUCGCAGCCCCUGUCAGAUUUUGGUGACUCUGCGAAUUCUGCCGUAUAUCUC [A20U C50U A57C U72C]	0.09
UAACAGGGGGCCACAGCAGUAACGUUCACGUCGCAGCCCCUGUCAGAUUCUGGUGAGUCUGCGAAUUCUGCUGUAUAUCUC [A20U G22A A57G]	0.04
UAACAGGGGGCCACAGCAGUAUCGUUCACGUCGCAGCCCUUGUCAGAUUCUGGUGAAUCUGCGAAUUCUGCUGUAUACCUC [A20U G22U C40U U78C]	0.13
UAACAGGGGGCCACAGCAGUAGCUUUCACGUCGCAGCCCCUGUCAGAUUCUGGUGAAUCCGCGAAUUCUGCUGUAUAUCUC [A20U G24U U60C]	0.1
UAACAGGGGGCCACAGCAGUAGCGUUCACAUCGCAGCCCCUGUCAGAUUCUGGUGAAUCUGCGGAUUCGGCUGUAUAUCUC [A20U G30A A64G U69G]	0.1
UAACAGGGGGCCACAGCAGUAGCGUUCACGUCACGGCCCCUGUCAGAUUCUGGUGAAUCUGCGAAUUCUGCUGUAUAUCUC [A20U G33A A35G]	0.24
UAACAGGGGGCCACAGCAGUAGCGUUCACGUCACAGCCCCUGUCUGAUUCUGGUGAAUCUGCGAAUUCUGCUGUAUAUCUC [A20U G33A A45U]	0.13
